These results are taken from ChEMBL document CHEMBL4888484, “Replenishing the malaria drug discovery pipeline: Screening and hit evaluation of the MMV Hit Generation Library 1 (HGL1) against asexual blood stage Plasmodium falciparum ,using a nano luciferase reporter read-out” (2022).

The campaign covered roughly 150,000 compounds. About 540 (0.36%) showed an effect of 50% or more. Some of the results follow.

The test system of the assay is Plasmodium falciparum. The assay is described as follows: Primary screen in NF54 nanoGlo assay, in single point, at 2uM, 72h; a lower Z score goes with more inhibition. The assay is classed as functional, Erythrocyte. As to conditions: timepoint 72 hour.
As to `CCCCN(C)CCNC(=O)c1nc(CS(=O)(=O)c2ccccc2)no1`, the “% Inhibition” value turned out to be 7% and the Z score is -1.23.
With `COCC(C)(C)NC(=O)N1Cc2cnc(-c3ccccc3)nc2C1`, the “% Inhibition” value is reported as -1% and the Z score came to 0.09.
Consider `CC[C@H](Nc1cccc(OC)c1)C(=O)N1CCCn2nc(C#N)cc2C1`, for which the “% Inhibition” value is -12% and the Z score was 1.43.
With `Cc1ccc(CNS(=O)(=O)c2cc(C(=O)N3CCOCC3)cs2)cc1`, the “% Inhibition” value is reported as -1% and the Z score worked out at 0.07.
With `CN1CCC(n2nccc2NC(=O)c2ccc3[nH]cnc3c2)CC1`, the “% Inhibition” value is recorded as -8% and the Z score was found to be 1.39.
For `Cc1cccc(CNC(=O)c2cc3n(n2)CCCN(Cc2ccc(F)cc2)C3=O)c1`, the “% Inhibition” value is on record as -12% and the Z score is given as 1.19.
In the case of `Cc1ccc(C2=C[C@@H](c3ccccc3)n3nnnc3N2CC(=O)NCc2ccccc2F)cc1`, the “% Inhibition” value is on record as -16% and the Z score came to 1.57.
As for `CCc1ccccc1S(=O)(=O)N1CCC[C@](CCOC)(c2noc(C3CC3)n2)C1`, the “% Inhibition” value is recorded as -11% and the Z score came to 1.63.
Consider `CCCCn1ncnc1-c1[nH]nc(C)c1Cl`, for which the “% Inhibition” value is listed as -6% and the Z score is on record as 1.15.
The like results for `CCCC(=O)NCC(=O)NCc1nccc(N(C)C)n1` were, in that order, -5% and 0.82.
The like results for `O=C(c1nc2ccc(Cl)cn2c1CNCc1cccnc1)N1CCCCCCC1` were, in that order, -16% and 2.08.
The corresponding values for `COCc1ncc(C)n1[C@H]1CCN(C(=O)CC2CCCC2)C1` are 7% and -1.15.
Regarding `Cc1nc(N)ccc1-c1ccc(C(=O)N2C[C@H](CO)[C@@H](CO)C2)cc1`, the “% Inhibition” value is reported as -1% and the Z score was determined as 0.08.
Turning to `COc1cc(Cl)c(C)cc1NC(=O)N(C)Cc1nc(C)no1`, the “% Inhibition” value is listed as -3% and the Z score was 0.43.
Regarding `CC(C)(C)OC(=O)N[C@@H](C(=O)O)c1ccc(Cl)cc1`, the “% Inhibition” value is reported as -9% and the Z score is reported as 1.41.
The like results for `CCc1cccc2c([C@H](CC(=O)N3CCN(c4ccccc4OC)CC3)c3ccc(Cl)cc3)c[nH]c12` were, in that order, -9% and 1.34.
As to `Cn1cc(C2CC2C(=O)N(CCN2CCCC2)c2ccccc2)cn1` (stereo unspecified), the “% Inhibition” value was -6% and the Z score is 0.77.
As to `CC(NC(=O)C(F)(F)C(F)(F)C(=O)NC(C)C1CC2CCC1C2)C1CC2CCC1C2` (stereo unspecified), the “% Inhibition” value was determined as 10% and the Z score is -1.56.
`Cc1cccc(-n2cc(-c3ccccc3)nc2NC(=O)CN(CC2CC2)C(=O)Cc2ccccc2)c1`: the “% Inhibition” value turned out to be 0% and the Z score was found to be 0.02.
The like results for `Cc1noc(Cc2ccc(NCc3nocc3C)cc2)n1` were, in that order, 1% and -0.08.
Turning to `CCCc1nc(C)cc(C[C@H]2CC(=O)N(CCOC)C2)n1`, the “% Inhibition” value was -4% and the Z score is listed as 0.52.
The like results for `NC(=O)[C@@H]1CCCc2sc(NC(=O)c3ccc4c(c3)OCO4)nc21` were, in that order, -2% and 0.27.
As to `CC(C)C[C@@H](CO)N(C)c1ccnc(N(C)C)n1`, the “% Inhibition” value was -1% and the Z score amounted to 0.19.
The corresponding values for `CCCOc1c(CN2CCC[C@H](CNS(C)(=O)=O)C2)cccc1OCC` are -5% and 0.6.
Regarding `COc1cccc(C(F)(F)CNC(=O)N[C@H]2C[C@H](OC)C2)n1`, the “% Inhibition” value is -2% and the Z score is on record as 0.32.
In the case of `COc1cccc(-c2n[nH]c(C3CC3)c2NC(=O)C(C)(C)C)c1`, the “% Inhibition” value is -18% and the Z score is reported as 1.78.
For `C[C@H](NC(=O)NC1CCCN(C)C1=O)c1cncc(F)c1` (stereo partly specified), the “% Inhibition” value is listed as -6% and the Z score was 1.09.
`COCCN(Cc1ccc(C)c(Cl)c1)[C@@H](C)C(N)=O`: the “% Inhibition” value was -2% and the Z score is listed as 0.28.
For the compound `CN1C[C@@H](C(=O)N2CCN(Cc3ccccc3)CC2)CC1=O`, the “% Inhibition” value was 8% and the Z score was -1.08.
Turning to `COc1cccc2[nH]cc(C(CC(=O)NC3CCS(=O)(=O)C3)c3ccsc3)c12` (stereo unspecified), the “% Inhibition” value is given as -12% and the Z score is listed as 2.25.
As for `Cc1cccnc1CN(Cc1ccccc1)C(=O)NC1(C)CCCCC1`, the “% Inhibition” value is 5% and the Z score is listed as -0.82.
As for `N#Cc1ccccc1CN1CC(c2cccnc2)C1`, the “% Inhibition” value is recorded as -4% and the Z score was determined as 0.46.
The corresponding values for `CC(C)Cc1cc(Cn2cc(-c3cncnc3)nn2)no1` are -7% and 1.33.
On to `O=C1CCCN1c1ccc(CNS(=O)(=O)c2ccc(Cl)cc2)cc1`, for which the “% Inhibition” value is given as 5% and the Z score is listed as -0.46.
`CN1CCN(C(=O)c2ccc(C#N)cc2)C[C@@]12CCC(=O)N(CC1CC1)CC2`: the “% Inhibition” value worked out at 1% and the Z score was -0.08.
In the case of `Cn1cc(-c2noc([C@@H]3Cc4ccccc4O3)n2)cn1`, the “% Inhibition” value is -1% and the Z score is recorded as 0.11.
For `CCOc1ccccc1N(C)Cc1cncs1`, the “% Inhibition” value is -8% and the Z score stood at 0.82.
In the case of `CC(=O)N1CCC(CN(C)C(=O)NC2CC(C)(C)c3ccccc32)C1` (stereo unspecified), the “% Inhibition” value is recorded as -4% and the Z score is on record as 0.4.
`COc1nn(C)cc1NC(=O)N[C@@H]1CCC[C@@H]1Oc1cnn(C)c1`: the “% Inhibition” value is on record as -7% and the Z score is listed as 1.41.
As for `O=C(O)[C@@H]1CN(C(=O)Cc2cc(C(F)(F)F)cc(C(F)(F)F)c2)CCN1`, the “% Inhibition” value is reported as -6% and the Z score came to 1.23.
On to `C=CC[C@@]1(O)C(=O)N2C(=C1C(=O)N1CCCCC1)c1ccccc1CC2(C)C`, for which the “% Inhibition” value was 10% and the Z score is listed as -1.4.
As to `COc1ccc(CN2CCCN(C(=O)C(c3ccccc3)c3ccccc3)CC2=O)cc1`, the “% Inhibition” value was -6% and the Z score is 1.15.
Consider `CC(C(=O)N1CCOCC1)N1CCCC1Cn1cccn1` (stereo unspecified), for which the “% Inhibition” value is given as -12% and the Z score was determined as 1.91.
For the compound `Cc1nc2ccccc2n1Cc1cc(C(=O)NC2(C(N)=O)CCCC2)no1`, the “% Inhibition” value is reported as -3% and the Z score was 0.51.
Consider `O=C1NC(=O)[C@H](CCC(=O)N2CCN(S(=O)(=O)c3ccc4c(c3)CCCC4)CC2)N1`, for which the “% Inhibition” value is reported as -16% and the Z score is 1.37.
`Cc1noc(C)c1CN1CCNC(=O)CC1`: the “% Inhibition” value came out at 31% and the Z score is on record as -4.11.
Turning to `O=C(Cn1cnc2ccccc21)Nc1ccccc1-c1ccc(=O)[nH]n1`, the “% Inhibition” value is given as -4% and the Z score amounted to 0.6.
The corresponding values for `Cc1nc(N)sc1-c1ccn(CCO)n1` are -5% and 0.88.
For `O=C(NCCN1CCCC1=O)c1ccc(-c2ccc(Cl)cc2F)cc1`, the “% Inhibition” value was 9% and the Z score is reported as -1.68.
In the case of `Cn1c(=O)c2c(ncn2[C@@H](C(=O)c2ccccc2)c2ccccc2)n(C)c1=O`, the “% Inhibition” value is given as -3% and the Z score was 0.48.
Turning to `CCN(CCN1CCCCCC1)Cc1cnn(CC)c1`, the “% Inhibition” value was determined as 1% and the Z score is given as -0.1.
Regarding `O[C@H](COc1ccccc1Cl)Cn1nc(C(F)(F)F)c2cnccc21`, the “% Inhibition” value is -1% and the Z score is recorded as 0.06.
As for `Cc1cccc2nc(-c3cc4c(cc3Cl)OCO4)[nH]c12`, the “% Inhibition” value is on record as -14% and the Z score was determined as 1.35.
On to `NC(=O)[C@@H]1C[C@@H](F)CN1C(=O)COC1CCCCC1`, for which the “% Inhibition” value is recorded as -17% and the Z score is given as 2.37.
The corresponding values for `NC(=O)c1cccc(OC(=O)c2cccc3cc[nH]c23)c1` are -5% and 0.82.
As to `Cc1ccnc(OCC(=O)Nc2cccc(C(F)(F)F)c2)n1`, the “% Inhibition” value is listed as -9% and the Z score came to 0.76.
Consider `COC[C@](C)(CC(=O)O)NC(=O)c1ccc(C)c(C)c1`, for which the “% Inhibition” value is on record as -11% and the Z score is listed as 2.27.
The like results for `Cc1cc(C(=O)N(C)C2CC2)nn1C(F)F` were, in that order, 0% and 0.06.
As to `O=C(CN(Cc1ccco1)[C@H]1CCS(=O)(=O)C1)N1CCc2ccccc21`, the “% Inhibition” value is listed as -1% and the Z score is recorded as 0.18.
Turning to `CCc1ocnc1C(=O)NS(=O)(=O)c1cc(Cl)c2c(c1)C[C@H](C)O2`, the “% Inhibition” value is -10% and the Z score stood at 1.34.
`Fc1ccc2c(c1)-c1c(cnc3cc(-c4ccccc4)nn13)CO2`: the “% Inhibition” value was -2% and the Z score worked out at 0.19.
Consider `O=C(CCN1C(=O)CCC1=O)Nc1cccc(S(=O)(=O)N2CCCCC2)c1`, for which the “% Inhibition” value is given as -4% and the Z score is recorded as 0.89.
For the compound `CC(=O)c1nnn(-c2nn(C)c3nc(C)cc(C)c23)c1C`, the “% Inhibition” value was -4% and the Z score is given as 0.57.
Regarding `COc1ccc(C(C)(O)C2CCCN2C(=O)c2cc(C)oc2C)cc1` (stereo unspecified), the “% Inhibition” value was found to be 0% and the Z score is listed as 0.01.
The like results for `CC(=O)Nc1ccc(N2C(=O)C3C(Cc4c[nH]c5ccccc45)NC4(C(=O)Nc5ccccc54)C3C2=O)cc1` (stereo unspecified) were, in that order, 4% and -0.48.
For the compound `CC(C)(CO)CNc1nc2nonc2nc1N1CCCC1`, the “% Inhibition” value is -2% and the Z score stood at 0.23.
Regarding `Cc1cc(N2CCCC2)c(F)cc1C(=O)c1ccccc1`, the “% Inhibition” value was -11% and the Z score is on record as 1.45.
On to `COCC(=O)Nc1cc(C(=O)NCCc2ccco2)c2c(c1)ncn2Cc1ccc(F)cc1`, for which the “% Inhibition” value was -1% and the Z score was 0.11.
Take `COCCN1C[C@@H](Cc2cccc(C(C)=O)c2)CC1=O`: the “% Inhibition” value came to 11% and the Z score is recorded as -1.45.
The corresponding values for `CCn1c(C(=O)N2CCN(Cc3ccccc3)CC2)cc2c(-c3cccs3)nn(-c3ccccc3)c21` are -4% and 0.68.
The like results for `COc1ccccc1OCC(=O)N1CCC[C@H](Oc2ccncc2)C1` were, in that order, -1% and 0.08.
The like results for `Cc1ccc([C@H](C)N[C@H]2CC[C@H](O)CC2)s1` were, in that order, -7% and 1.
Consider `Cc1nc(CN(C)Cc2cnc(NCc3ccccc3)nc2)cs1`, for which the “% Inhibition” value stood at 8% and the Z score is listed as -0.73.
For `Cc1n[nH]cc1CN(C)C(=O)CCOc1ccccc1`, the “% Inhibition” value is -26% and the Z score is reported as 3.85.
On to `CC(C)C[C@H]1C(=O)NCCCN1C(=O)COCc1ccnn1C`, for which the “% Inhibition” value is 11% and the Z score was -1.51.
The like results for `CCOc1cc(C(=O)N[C@@H](Cc2ccccc2)C(=O)N2CCC3(CC2)NCCc2[nH]cnc23)cc(OCC)c1OCC` were, in that order, 3% and -0.32.
With `Cn1cnc(CNC(=O)NCC2(N3CCOC(C)(C)C3)CCCCC2)n1`, the “% Inhibition” value is -21% and the Z score is recorded as 2.69.
As for `C[C@]1(C(=O)Nc2ccccc2-n2cncn2)CC1(Cl)Cl`, the “% Inhibition” value is reported as -3% and the Z score is 0.66.
With `O=C(Nc1ccc(S(=O)(=O)N2C[C@@H]3C[C@@H](C2)c2cccc(=O)n2C3)cc1)c1ccccc1Cl`, the “% Inhibition” value is on record as -2% and the Z score came to 0.21.
The like results for `Cc1ccc([C@@H](C)C(=O)NC2(c3ccccc3F)COC2)o1` were, in that order, -5% and 0.7.
As to `O=C(NC1CCCCC1)N1CC[C@H](c2nc3ccccc3o2)C1`, the “% Inhibition” value was determined as 12% and the Z score was -1.41.
For `C[C@H]1Cc2ccccc2N1C(=O)C1CCN(S(=O)(=O)c2ccc3c(c2)CCCN3C(=O)C2CCC2)CC1`, the “% Inhibition” value is recorded as -12% and the Z score is reported as 2.34.
For `O[C@@H](CN(c1ccc2nccnc2n1)C1CC1)c1ccc(F)cc1`, the “% Inhibition” value is recorded as -8% and the Z score was 1.39.
